# Reference: PubChem BioAssay AID894 (National Center for Advancing Translational Sciences (NCATS), 2007)
# Among all 150,000 compounds or so, about 6,500 (4.3%) were called active. Inconclusive means that the source gave no clear call. Such entries were picked first, then a sample of the others. The call rests on the fitted dose curve; in most records, active means well fitted inhibition curve with a large enough effect (not every such curve was filed as active); inconclusive means small, poorly fitted or top-dose-only effect, or another doubt; inactive means no such curve, though single readings can be large or run the other way. Potencies of inconclusive entries are left out as doubtful fits. More than one record can exist for a structure, and the calls need not agree.
# Target: 15-hydroxyprostaglandin dehydrogenase [NAD(+)] (Homo sapiens) (UniProt P15428)
# UniProt P15428, sequence (P15428 whole entry, looked up): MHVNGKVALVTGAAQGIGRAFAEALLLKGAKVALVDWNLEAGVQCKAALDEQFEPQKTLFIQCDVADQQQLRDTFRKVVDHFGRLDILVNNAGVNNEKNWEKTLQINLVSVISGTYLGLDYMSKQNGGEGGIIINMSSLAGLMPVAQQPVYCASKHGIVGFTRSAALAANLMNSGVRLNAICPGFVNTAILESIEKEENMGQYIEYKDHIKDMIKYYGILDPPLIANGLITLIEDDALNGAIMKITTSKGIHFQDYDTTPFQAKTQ
# Experiment: qHTS Assay for Inhibitors of HPGD (15-Hydroxyprostaglandin Dehydrogenase)
# Details: purified HPGD, NADH fluorescence kinetic, PGE2 substrate; activity change, negative = inhibition: stronger effect = lower value
# Method in brief: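 20 nM HPGD preincubated 15 min at room temperature with compound in 50 mM Tris-HCl pH 8, 0.01% Tween 20. Started with 1 mM NAD+ and 30 uM prostaglandin E2; NADH fluorescence (360/450 nm) read 5 times over 30-s intervals, last minus first.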
# On the % scale 0 is the no-effect control and ±100 the full control effect; potency means the concentration at half of the fitted maximal effect; tags describe the fitted curve by direction and shape.
Compound,Potency,"activity change, negative = inhibition"
O=C(Nc1nnc(C(F)(F)F)s1)c1ccc(N2C(=O)C3C4C=CC(C4)C3C2=O)cc1 (stereo unspecified),active: 14.1 µM,
O=C(Cc1ccccc1)NCCSCc1ccccc1,"inconclusive [inhibitor, partial curve]",
COc1ccc(-c2nnc(-c3ccc(N(C)C)cc3)o2)cc1,"inconclusive [inhibitor, partial curve]",
O=C(CSc1nc(-c2ccco2)cc(C(F)(F)F)n1)N1CCN(Cc2ccccc2)CC1,"inconclusive [inhibitor, partial curve]",
CCOc1ccc(NC(=S)N/N=C(\C)Cc2ccc(OC)cc2)cc1,"inconclusive [inhibitor, single point]",
CCCCc1cc(=O)oc2cc(C)cc(OC(C)C(=O)O)c12 (stereo unspecified),"inconclusive [inhibitor, partial curve]",
Cc1ccc2cc(C#N)c(N3CCCN(S(=O)(=O)c4ccc(F)cc4)CC3)nc2c1,"inconclusive [inhibitor, single point]",
COc1ccc(C(=O)COC(=O)COc2ccc(C)c(C)c2)cc1,"inconclusive [inhibitor, partial curve]",
Cc1ccc(-c2ccccc2)n1-c1ccc(C(=O)O)cc1,,inactive: -4.53%
O=C1C=CC2=C3c4cc(O)c(O)cc4C[C@]3(O)COC2=C1,active: 15.8 µM,
O=C(CSc1nc2ccccc2n1S(=O)(=O)c1ccccc1)N1CCCCC1,active: 1.78 µM,
COCCCNC(=O)c1sc2ncnc(N3CCc4ccccc4C3)c2c1C,"inconclusive [inhibitor, partial curve]",
CCOC(=O)c1csc(NC(=O)CSc2nnnn2-c2cccc(OC)c2)n1,,inactive: -12.3%
Cl/C(=C\n1cncn1)c1ccc(Cl)cc1Cl,active: 14.1 µM,
Cc1scc(-c2n[nH]c(=S)n2Cc2ccccc2)c1C,"inconclusive [inhibitor, partial curve]",
CCN1CCCC1CNC(=O)c1cc2c(C)nc3ccccc3c2o1 (stereo unspecified),"inconclusive [inhibitor, partial curve]",
Cn1c(COc2ccccc2)nnc1SCCSc1nnc(COc2ccccc2)n1C,,inactive: -12.6%
O=C(NC(=S)NC(c1ccccc1)c1ccncc1)c1ccccc1 (stereo unspecified),,inactive: -12.1%
CCNc1ccc(C(=O)O)cc1N,"inconclusive [inhibitor, partial curve]",
Cc1cn(C(=O)c2ccccc2)c(=S)n1-c1ccc(Br)cc1,"inconclusive [inhibitor, single point]",
O=C(CCCN1C(=O)c2cccc3cccc(c23)C1=O)N1CCc2ccccc2C1,"inconclusive [inhibitor, partial curve]",
CCc1nnc(NC(=O)C2c3ccccc3Oc3ccccc32)s1,,inactive: -6.54%
Clc1cccc2sc(N3CCCCC3)nc12,"inconclusive [inhibitor, single point]",
CCNc1ncc2nc(-c3cc(F)cc(F)c3)c(=O)n(-c3ccccc3)c2n1,"inconclusive [inhibitor, partial curve]",

Compound,Potency,"activity change, negative = inhibition"
Cc1cc(NS(=O)(=O)c2ccc(NC(=S)NC(=O)c3ccc(F)cc3Cl)cc2)no1,"inconclusive [inhibitor, partial curve]",
O=C(CCn1c(=O)[nH]c2ccsc2c1=O)Nc1ccc(F)c(F)c1,"inconclusive [inhibitor, partial curve]",
O=C(COc1ncnc2ccc(Br)cc12)NCc1ccc2c(c1)OCO2,,inactive: -3.89%
Cc1ccc(-c2nn3c(C)nnc3s2)cc1NC(=O)c1ccc(OC(C)C)cc1,active: 1.12 µM,
CCc1cc(=O)oc2cc(C)cc(O)c12,active: 28.2 µM,
Cc1cc(C)c(C#N)c(SCS(=O)Cc2ccccc2)n1 (stereo unspecified),"inconclusive [inhibitor, partial curve]",
O=C(Nc1ccccc1N1CCOCC1)c1ccc(Br)o1,"inconclusive [inhibitor, single point]",
Cc1cccc2sc(NC(=O)c3ccc(Cl)s3)nc12,"inconclusive [inhibitor, partial curve]",
COc1ccc(-n2ncc3c(=O)n(CC(=O)Nc4ccc(S(=O)(=O)N5CCOCC5)cc4)cnc32)cc1,"inconclusive [inhibitor, single point]",
C=CCNC(=O)c1ccc(C)cc1Cl,active: 3.98 µM,
CC1CCc2c(c3ccccc3[nH]c2=O)O1 (stereo unspecified),"inconclusive [inhibitor, single point]",
Cc1ccccc1Cc1c(C)nc2c(C(=O)NCc3ccc4c(c3)OCO4)cnn2c1C,"inconclusive [inhibitor, partial curve]",
C[N+]1(C)CCc2cc(O)c(O)cc2[C@H]1Cc1ccc(O)c(O)c1,,inactive: -2.61%
O=C(CSC1=NCCS1)Nc1ccc(S(=O)(=O)N2CCCCCC2)cc1,"inconclusive [inhibitor, partial curve]",
O=C(Nc1cccc2nsnc12)c1cccnc1Cl,"inconclusive [inhibitor, single point]",
CC1=NN(c2ccccc2)C(=O)/C1=C\c1ccc(Br)s1,active: 28.2 µM,
CC1CCN(S(=O)(=O)c2ccc(NC(=O)Cn3nnc(-c4ccccc4)n3)cc2)CC1,,inactive: -2.8%
CCOCCOC(=O)c1ccc(-n2cncn2)nc1,,inactive: -14.9%
COC(=O)c1c(NC(=O)CN(c2ccc(C)c(C)c2)S(C)(=O)=O)sc2c1CCCC2,"inconclusive [inhibitor, single point]",
O=C(Nc1ccc(Cc2ccncc2)cc1)c1ccc(Cl)c([N+](=O)[O-])c1,"inconclusive [inhibitor, partial curve]",
COc1cc2[nH]c3c(=O)n(CCN(C(C)C)C(C)C)cnc3c2cc1OC,"inconclusive [inhibitor, partial curve]",
O=C(N/N=C/c1cccc(F)c1)c1cc(-c2ccco2)nc2ccccc12,"inconclusive [inhibitor, partial curve]",
O=C(NCc1ccco1)c1cccc(F)c1,"inconclusive [inhibitor, partial curve]",
COc1ccccc1C1/C(=C(/O)c2ccc(C)cc2)C(=O)C(=O)N1CCN1CCOCC1 (stereo unspecified),,inactive: 0.435%

Compound,Potency,"activity change, negative = inhibition"
CC1CCCC(C)N1C(=O)CSCc1ccc(Cl)cc1 (stereo unspecified),,inactive: -15.6%
CNc1ncnc2ccc(-c3cccc(NS(C)(=O)=O)c3)cc12,"inconclusive [inhibitor, single point]",
CC(=O)c1cccc(NC(=S)NC(=O)c2cccc(Cl)c2)c1,"inconclusive [inhibitor, single point]",
C=CCn1c(-c2csc(-c3ccccc3)n2)n[nH]c1=S,"inconclusive [inhibitor, full curve, poor fit]",
COc1ccc(-c2cc(C(=O)OC3CCOC3=O)c3ccccc3n2)cc1 (stereo unspecified),"inconclusive [inhibitor, partial curve]",
O=c1c2ccccc2nc2n1CCCCN2,"inconclusive [inhibitor, partial curve]",
CC1=C(C(=O)OCC2CCCO2)C(c2cccc(C(F)(F)F)c2)C2=C(CC(c3ccco3)CC2=O)N1 (stereo unspecified),"inconclusive [inhibitor, partial curve]",
CC(=O)O/N=C(/C)c1ncc(C(F)(F)F)cc1N1CCOCC1,"inconclusive [inhibitor, partial curve]",
COc1ccc(C2(O)CCN(CCCCOc3ccccc3)CC2)cc1,,inactive: -20.6%
CC1=CC2=NC(=O)/C(=C\c3ccc(-c4cccc(Cl)c4)o3)C(=N)N2O1,,inactive: -4.45%
COc1cccc(-c2cc(C(=O)N3C(C)CCCC3C)no2)c1 (stereo unspecified),active: 8.91 µM,
Cc1ccccc1N1C(=O)c2ccccc2NC1c1ccncc1 (stereo unspecified),"inconclusive [inhibitor, partial curve]",
CCOC(=O)c1cc2occc2n1Cc1c(F)cccc1Cl,,inactive: -15.6%
COc1ccc(CN(C(=S)Nc2ccccc2)C2CC(=O)N(c3ccc(Cl)cc3)C2=O)cc1 (stereo unspecified),,inactive: -12%
CCCCNC(=O)Nc1cc(C(F)(F)F)c[nH]c1=O,"inconclusive [inhibitor, single point]",
Brc1ccc(-c2noc(COc3ccc4c(c3)CCC4)n2)o1,,inactive: -16.3%
Cc1cc(C)cc(NC(=O)CSc2nc3c(c(=O)[nH]2)CN(Cc2ccc(F)cc2)CC3)c1,"inconclusive [inhibitor, partial curve]",
CC(=O)c1ccccc1NC(=O)Cn1c(=O)cnc2ccccc21,,inactive: -14.1%
CC(=O)Nc1cccc(N/C=C(\C=O)c2nc3ccccc3o2)c1,"inconclusive [inhibitor, partial curve]",
N[C@@H](Cc1cc(I)c(Oc2ccc(O)c(I)c2)c(I)c1)C(=O)O,active: 28.2 µM,
Cc1cc(=O)oc2cc(O[C@@H]3O[C@H](C(=O)O)[C@@H](O)[C@H](O)[C@H]3O)ccc12,"inconclusive [inhibitor, single point]",
N#CC1=C(O)C(c2ccccc2)n2c1nc(=O)c1ccccc12 (stereo unspecified),"inconclusive [inhibitor, partial curve]",
COc1ccc(Cc2nn3c(Cn4nnc5ccccc54)nnc3s2)cc1,active: 22.4 µM,
